# Out of some 340,000 compounds screened, about 12,000 (3.5%) were called active. Inconclusive results, whose numbers are uncertain, are shown with a selection of clear calls. Calls follow the shape of the dose curve; as a rule, active = well fitted inhibition curve with a large enough effect; inconclusive = small, poorly fitted or top-dose-only effect, or another doubt; inactive = no such curve, though single readings can be large or run the other way. No potency is given beside an inconclusive call; the fits are too rough.
# Assay: qHTS Assay for Inhibitors of Hepatitis C Virus (HCV)
# Conditions: Huh7.5.1 HCVcc-Cre (HCVcc is cell-culture hepatitis C virus) infection, luciferase reporter, 44 h; activity change, negative = inhibition: at 41.8 µM (top of the series) unless noted
# Outline: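 Luciferase read-out (15 sec integration) after a 15 min room-temperature substrate step quantifies HCVcc-Cre infection. Cells, 1,000 per well, had compound added 4 h post-plating, then virus at ~0.5 moi, and were cultured 44 h.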
# % is scaled to controls: 0 for no effect and ±100 for the full control effect; potency is read from the fitted curve at half-maximal effect; tags tell the direction and shape of the fitted curve.
Compound,Potency,"activity change, negative = inhibition"
O=c1ccn(C2CCCO2)c(=O)[nH]1 (stereo unspecified),inactive,–
Cc1ccc(C(=O)N/C(=C/c2ccc(-c3ccc(Br)cc3)o2)C(=O)NC2CCS(=O)(=O)C2)cc1 (stereo unspecified),"inconclusive [inhibitor, single point]",–
NC(=O)c1ccccc1OCC(=O)N1CCc2ccccc2C1,"inconclusive [inhibitor, single point]",–
Clc1ccc(OCCn2cnc(Cl)c2Cl)cc1,inactive,–
CNC(=O)[C@H]1O[C@@H](n2cnc3c(NCc4cccc(I)c4)nc(Cl)nc32)[C@H](O)[C@@H]1O,inactive,–
Clc1cccc(CSc2ncnc3c2ncn3C2CCCCO2)c1 (stereo unspecified),"inconclusive [inhibitor, single point]",–
CCCC(=O)NC(C)c1nc(-c2ccc(C)cc2)no1 (stereo unspecified),inactive,–
CCOC(=O)c1[nH]c(CSc2nnnn2-c2ccccc2C)c(C(=O)OCC)c1C,"inconclusive [inhibitor, single point]",–
O=C(CCC1CCCC1)c1c(O)c2ccccc2oc1=O,"inconclusive [inhibitor, single point]",–
COc1ccc(NC(=O)CN2CCN(c3nc(-c4ccc(F)cc4)cs3)CC2)c(OC)c1,"inconclusive [inhibitor, partial curve]",–
O=C(Nc1ccc(Cl)cc1)O/N=C(\c1ccccc1)c1ccccn1,inactive,–
COc1ccc(OC)c(S(=O)(=O)N2CCC3(CC2)OCCN3S(=O)(=O)c2cccs2)c1,inactive,–
CCOC(=O)N/N=C\c1ccc([N+](=O)[O-])o1,"inconclusive [inhibitor, single point]",–
COc1ccc(OC)c(NC(=O)c2ccc3c(=O)n(CCc4ccccc4)c(=S)[nH]c3c2)c1,"inconclusive [inhibitor, partial curve]",–
Cc1ccc(C)c(OCc2cc(C(=O)N3C[C@@H](C)O[C@@H](C)C3)no2)c1,"inconclusive [inhibitor, full curve]",–
O=C(N/N=C/c1ccccc1)c1n[nH]c2c1CCCC2,"inconclusive [inhibitor, partial curve]",–
O=C(CCCN1C(=O)C(c2ccccc2)Oc2cccnc21)NCc1ccccc1Cl (stereo unspecified),"inconclusive [inhibitor, single point]",–
O=C1c2cccc3cccc(c23)C(=O)N1CCN1CCN(CC(O)COc2ccc3ccccc3c2)CC1 (stereo unspecified),active: 11.2 µM,–
Cc1ccc(N2C(=O)C(F)(F)C2c2ccccc2)cc1 (stereo unspecified),inactive,–
CN1CCN(Cc2c(O)ccc3c(-c4ccccc4)cc(=O)oc23)CC1,inactive,–
Cc1ccc(-c2csc(NCCn3c(C(F)(F)F)nc4ccccc43)n2)cc1,"inconclusive [inhibitor, partial curve]",–
N#C/C(=C\c1ccc(Cl)c([N+](=O)[O-])c1)c1ccccn1,"inconclusive [inhibitor, single point]",–
O=[N+]([O-])c1ccc(N2CCN(S(=O)(=O)c3ccccc3)CC2)cc1NCCN1CCOCC1,"inconclusive [inhibitor, partial curve]",–
CC(=NNC(=S)N1CCN(C2CCCCCC2)CC1)c1ccccn1,active: 0.891 µM,–

Compound,Potency,"activity change, negative = inhibition"
COc1c(Br)cc2c(C)c(C(=O)N3CCOCC3)oc2c1Br,"inconclusive [inhibitor, single point]",–
CC(=O)c1sc(NC(=O)C2CCN(c3ncnc4sc(C)c(C)c34)CC2)nc1-c1ccccc1,"inconclusive [inhibitor, single point]",–
COc1cccc(C(=O)NCCS(=O)(=O)NCc2ccc3c(c2)OCO3)c1,"inconclusive [inhibitor, single point]",–
N#CC1=C(O)CCCn2c1nc1ccccc1c2=O,inactive,–
COc1cccc2cc(CC(=O)c3cc(C)ccc3C)c(=O)oc12,"inconclusive [inhibitor, partial curve]",–
Cc1cc(NC(=O)CSc2nnnn2-c2ccc(C)c(Cl)c2)no1,inactive,–
CC(=O)N1N=C(c2ccncc2)OC1(Cc1ccccc1)Cc1ccccc1,"inconclusive [inhibitor, single point]",–
Cc1cc(NC(=O)c2cccs2)ncc1NC(=O)C(C)(C)C,inactive,–
CCN(CCCNC(=O)CN(C)S(=O)(=O)c1ccc2c(c1)CCC(=O)N2)c1cccc(C)c1,"inconclusive [inhibitor, single point]",–
CC(C)(C)OC(=O)NCc1ccc(CNC(=O)c2nc[nH]c2C(=O)N2CCN(C(=O)OC(C)(C)C)CC2)cc1,"inconclusive [inhibitor, partial curve]",–
O=C(CCCCn1c(=O)c2ccccc2n(Cc2ccc(F)cc2)c1=O)NCc1ccco1,"inconclusive [inhibitor, partial curve]",–
COc1ccc(-n2c(=S)[nH]c3cc(C(=O)Nc4cc(OC)c(OC)c(OC)c4)ccc3c2=O)c(OC)c1,"inconclusive [inhibitor, single point]",–
CCOC(=O)/C=C/[C@H]1CCc2cccc(Cl)c2O1,inactive,–
FC(F)(F)c1cc(CO[C@@H]2CCCN[C@@H]2c2ccccc2)cc(C(F)(F)F)c1,active: 3.55 µM,–
CCCn1c(C(C)Nc2nc(C)cs2)nc2cc(Cl)c(Cl)cc21 (stereo unspecified),"inconclusive [inhibitor, partial curve]",–
COc1cc(OC)c(C(=O)C=Cc2ccc(OC)c(OC)c2)c(OC)c1,–,inconclusive: -49.3% [inhibitor]
Cc1cc(C)nc(Sc2ncnc(N)c2[N+](=O)[O-])n1,active: 22.4 µM,–
N#Cc1nc(-c2cccs2)oc1N1CCOCC1,"inconclusive [inhibitor, single point]",–
Cc1ccc(C(=O)OC(C)CN2C(C)CCCC2C)cc1 (stereo unspecified),inactive,–
CCOc1ccc(/C=C2\SC(=S)N(CC(=O)NCCCN3CCOCC3)C2=O)cc1,"inconclusive [inhibitor, single point]",–
CC1CC1C(=O)N(CCC1=CCCCC1)c1c(N)n(Cc2ccccc2)c(=O)[nH]c1=O (stereo unspecified),inactive,–
COc1ccc(N2CCSC2C(=O)NN)cc1 (stereo unspecified),inactive,–
O=C(NCCC1=CCCCC1)c1ccc2c(c1)N(Cc1ccccc1)C(=O)CS2,"inconclusive [inhibitor, single point]",–
O=C(Nc1ccccc1Br)c1ccccc1-c1ccccc1,"inconclusive [inhibitor, partial curve]",–

Compound,Potency,"activity change, negative = inhibition"
COc1ccc(CCN(Cc2nc3ccccc3c(=O)[nH]2)C(=O)C2CC2)cc1,"inconclusive [inhibitor, single point]",–
O=C(CSc1nnc(SCc2ccc(Cl)cc2)s1)N/N=C/c1ccc(C(=O)O)cc1,inactive,–
O=C(Nc1ccnn1C1CCN(Cc2ccc(CO)o2)CC1)c1ccc2c(c1)OCO2,inactive,–
Cc1cc(C)c2c(N=NN3CCCCC3)[nH]nc2n1,"inconclusive [inhibitor, single point]",–
COc1ccc(C2c3c(ncn(CCN4CCOCC4)c3=N)Oc3ccc4ccccc4c32)cc1OC (stereo unspecified),"inconclusive [inhibitor, single point]",–
Cc1cc(Br)cc(C)c1OCCCCN(C)C,"inconclusive [inhibitor, full curve, poor fit]",–
Cc1cc(C(=O)COC(=O)c2ccccc2Br)c(C)n1CC1CCCO1 (stereo unspecified),"inconclusive [inhibitor, partial curve]",–
COCc1cc(C)nc2sc(C(=O)OC(C)C)c(N)c12,"inconclusive [inhibitor, single point]",–
CCOc1cc(/C=N/Nc2cc(C)nc(-n3nc(C)cc3C)n2)ccc1O,"inconclusive [inhibitor, partial curve]",–
CCC(C)NC(=O)CN(c1ccc(OC)cc1)S(=O)(=O)c1ccc(NC(C)=O)cc1 (stereo unspecified),inactive,–
O=C(NCc1cc(C(F)(F)F)cc(C(F)(F)F)c1)C1CC(c2ccccc2[N+](=O)[O-])=NO1 (stereo unspecified),"inconclusive [inhibitor, partial curve]",–
CCOc1ccc(C(=O)NCC(=O)OCC(=O)N2CCCCC2)cc1,"inconclusive [inhibitor, single point]",–
Nc1nc(SCc2ccc([N+](=O)[O-])cc2)nc2nc3c(cc12)CCCC3,"inconclusive [inhibitor, single point]",–
CCOC(=O)C(C)(C)NS(=O)(=O)c1ccc(Cl)c([N+](=O)[O-])c1,"inconclusive [inhibitor, single point]",–
COc1cccc(C(=O)NCC2CCN(c3ccc(S(=O)(=O)N4CCOCC4)cc3)CC2)c1,"inconclusive [inhibitor, single point]",–
CN(C)CCCN1C(=O)C(O)=C(C(=O)c2cc3ccccc3o2)C1c1ccccc1 (stereo unspecified),inactive,–
COc1cccc(Cn2nnc(C(=O)Nc3cc(Cl)ccc3OC)c2N)c1,"inconclusive [inhibitor, partial curve]",–
CC(=O)NCCC(=O)Nc1nc(-c2ccccc2Cl)cs1,inactive,–
O=[N+]([O-])c1cc(CN(CCO)CCO)ccc1O,inactive,–
Cc1ccc(NC(=O)CSc2nnc(NC(=O)c3ccco3)s2)cc1,inactive,–
CCc1nc(SCC(=O)Nc2nnc(CC)s2)c2c(=O)n(C)c(=O)n(C)c2n1,"inconclusive [inhibitor, partial curve]",–
Cc1cc(-c2nc3cc(F)ccc3s2)ccc1N,"inconclusive [inhibitor, partial curve]",–
Cc1csc(NC(=O)c2ccc3ccccc3n2)n1,"inconclusive [inhibitor, single point]",–

# From PubChem BioAssay AID651820 (National Center for Advancing Translational Sciences (NCATS), 2012)
